{
  "source": "the supplement of paper PMC8728848",
  "binders": {"B1": {"name": "Pbx2 (Cryptococcus neoformans) (protein)", "chain": "AVSPLPSSTELVFYSQKRRRRRICSTATGSLSTPDPTRMTSDPYKRVGMRFSSVPRLLITFLSLLLLVSAAPPCVRFADYDSINQMFIDGGPGTKVLLCPNRLYRLSGPIIFTAADQEIATYGYPTGSERAVLRVEGRNTATAIQGDCRRCARVSVKNLVVDGNRKKLGRMRDFQLATGLVVLGGNEGQSIQNSWIKNPRGFTAIHIREGDKLQCSGARVEKNEIGPVGEEYDPEKDGDDPEMSPLGRPLADGVSIACRDSFIRDNTFRDNTDAAIVVYCSPGTLIHANHIFAQSLSAMAGILMVDSTPFNGDYTGTVVRSNIIDAVSRTIRVGIGIGPTVWSDDTETILTGGSVIGNGLKGRYMGYGIAAAGLKQWTIKDNWDEAKHEGRKSARCFDEPVNPDPIGLLYNRPTMEDCTVQSGFADHDFQYLVCIDGLYDKTNPPKHDPAPLAHDPSPTNAQEDNTVQQDGGDSKSKSIEQPREASDIEAEPSVEKMFSTGSEMMDDVLEHSHQRMHEVIDHLSRRIDILGAASAGKGSGDSKISEVLDPAMSSHLEKLQRKIEHLEFSLRSQIETAIQLRSAIQGWDQEMALVTDWEYDILLDVRHKLELSSYPHDQPLDPRLMRGQSYLNNEAVLVDDHSHPSLEGENLRAMSDRARLNANEEA"}},
  "experiment_in_all_cases": "glycan array binding signal (z-score within array); higher = stronger binding",
  "settings_in_all_cases": "glycan notation: IUPAC condensed, linker removed",
  "key": {"[1]": {"biological_target": "Neu5Ac(a2-6)Gal(b1-4)GlcNAc(b1-2)Man(a1-3)[Neu5Ac(a2-3)Gal(b1-4)GlcNAc(b1-2)Man(a1-6)]Man(b1-4)GlcNAc(b1-4)GlcNAc", "in_short": "(§1)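 Columns mapping to the same glycan were averaged after glycan names were converted to IUPAC-condensed notation. The data come from 3228 arrays in the Consortium for Functional Glycomics database, limited to those with an available protein sequence. Binding is reported as a within-array Z-score averaged across arrays of one protein sequence and across linkers.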"}, "[2]": {"biological_target": "Neu5Ac(a2-6)Gal(b1-4)GlcNAc(b1-2)Man(a1-3)[Neu5Ac(a2-6)Gal(b1-4)GlcNAc(b1-2)Man(a1-6)]Man(b1-4)GlcNAc(b1-4)GlcNAc", "in_short": "as §1"}, "[3]": {"biological_target": "Neu5Ac(a2-6)Gal(b1-4)GlcNAc(b1-2)Man(a1-3)[Neu5Ac(a2-6)Gal(b1-4)GlcNAc(b1-2)Man(a1-6)]Man(b1-4)GlcNAc(b1-4)[Fuc(a1-6)]GlcNAc", "in_short": "as §1"}, "[4]": {"biological_target": "Neu5Ac(a2-6)Gal(b1-4)GlcNAc(b1-2)Man(a1-6)Man(b1-4)GlcNAc(b1-4)GlcNAc", "in_short": "as §1"}, "[5]": {"biological_target": "Neu5Ac(a2-6)Gal(b1-4)GlcNAc(b1-2)Man(a1-6)[Gal(b1-4)GlcNAc(b1-2)Man(a1-3)]Man(b1-4)GlcNAc(b1-4)GlcNAc", "in_short": "as §1"}, "[6]": {"biological_target": "Neu5Ac(a2-6)Gal(b1-4)GlcNAc(b1-2)Man(a1-6)[GlcNAc(b1-2)Man(a1-3)]Man(b1-4)GlcNAc(b1-4)GlcNAc", "in_short": "as §1"}, "[7]": {"biological_target": "Neu5Ac(a2-6)Gal(b1-4)GlcNAc(b1-2)Man(a1-6)[Man(a1-3)]Man(b1-4)GlcNAc(b1-4)GlcNAc", "in_short": "as §1"}, "[8]": {"biological_target": "Neu5Ac(a2-6)Gal(b1-4)GlcNAc(b1-2)[Neu5Ac(a2-6)Gal(b1-4)GlcNAc(b1-4)]Man(a1-3)[GlcNAc(b1-4)][Neu5Ac(a2-6)Gal(b1-4)GlcNAc(b1-2)[Neu5Ac(a2-6)Gal(b1-4)GlcNAc(b1-6)]Man(a1-6)]Man(b1-4)GlcNAc(b1-4)GlcNAc", "in_short": "as §1"}, "[9]": {"biological_target": "Neu5Ac(a2-6)Gal(b1-4)GlcNAc(b1-2)[Neu5Ac(a2-6)Gal(b1-4)GlcNAc(b1-4)]Man(a1-3)[GlcNAc(b1-4)][Neu5Ac(a2-6)Gal(b1-4)GlcNAc(b1-4)Man(a1-6)]Man(b1-4)GlcNAc(b1-4)GlcNAc", "in_short": "as §1"}, "[10]": {"biological_target": "Neu5Ac(a2-6)Gal(b1-4)GlcNAc(b1-2)[Neu5Ac(a2-6)Gal(b1-4)GlcNAc(b1-6)]Man(a1-6)[Neu5Ac(a2-6)Gal(b1-4)GlcNAc(b1-2)Man(a1-3)][GlcNAc(b1-4)]Man(b1-4)GlcNAc(b1-4)GlcNAc", "in_short": "as §1"}, "[11]": {"biological_target": "Neu5Ac(a2-6)Gal(b1-4)GlcNAc(b1-3)Gal(b1-3)GlcNAc", "in_short": "as §1"}, "[12]": {"biological_target": "Neu5Ac(a2-6)Gal(b1-4)GlcNAc(b1-3)Gal(b1-4)GlcNAc", "in_short": "as §1"}, "[13]": {"biological_target": "Neu5Ac(a2-6)Gal(b1-4)GlcNAc(b1-3)Gal(b1-4)GlcNAc(b1-2)Man(a1-3)[Neu5Ac(a2-6)Gal(b1-4)GlcNAc(b1-3)Gal(b1-4)GlcNAc(b1-2)Man(a1-6)]GalNAc", "in_short": "as §1"}, "[14]": {"biological_target": "Neu5Ac(a2-6)Gal(b1-4)GlcNAc(b1-3)Gal(b1-4)GlcNAc(b1-3)Gal(b1-4)GlcNAc", "in_short": "as §1"}, "[15]": {"biological_target": "Neu5Ac(a2-6)Gal(b1-4)GlcNAc(b1-3)Gal(b1-4)GlcNAc(b1-3)Gal(b1-4)GlcNAc(b1-2)Man(a1-3)[Neu5Ac(a2-6)Gal(b1-4)GlcNAc(b1-3)Gal(b1-4)GlcNAc(b1-3)Gal(b1-4)GlcNAc(b1-2)Man(a1-6)]GalNAc", "in_short": "as §1"}, "[16]": {"biological_target": "Neu5Ac(a2-6)Gal(b1-4)GlcNAc(b1-3)Gal(b1-4)GlcNAc(b1-3)GalNAc", "in_short": "as §1"}, "[17]": {"biological_target": "Neu5Ac(a2-6)Gal(b1-4)GlcNAc(b1-3)Gal(b1-4)GlcNAc(b1-3)[Neu5Ac(a2-6)Gal(b1-4)GlcNAc(b1-3)Gal(b1-4)GlcNAc(b1-6)]GalNAc", "in_short": "as §1"}, "[18]": {"biological_target": "Neu5Ac(a2-6)Gal(b1-4)GlcNAc(b1-3)Gal(b1-4)GlcNAc(b1-6)[Gal(b1-3)]GalNAc", "in_short": "as §1"}, "[19]": {"biological_target": "Neu5Ac(a2-6)Gal(b1-4)GlcNAc(b1-3)Gal(b1-4)[Fuc(a1-3)]GlcNAc(b1-3)Gal(b1-4)[Fuc(a1-3)]GlcNAc", "in_short": "as §1"}, "[20]": {"biological_target": "Neu5Ac(a2-6)Gal(b1-4)GlcNAc(b1-3)GalNAc", "in_short": "as §1"}, "[21]": {"biological_target": "Neu5Ac(a2-6)Gal(b1-4)GlcNAc(b1-3)[Neu5Ac(a2-6)Gal(b1-4)GlcNAc(b1-6)]GalNAc", "in_short": "as §1"}, "[22]": {"biological_target": "Neu5Ac(a2-6)Gal(b1-4)GlcNAc(b1-6)GalNAc", "in_short": "as §1"}, "[23]": {"biological_target": "Neu5Ac(a2-6)Gal(b1-4)GlcNAc(b1-6)[Gal(b1-3)GlcNAc(b1-3)]Gal(b1-4)Glc", "in_short": "as §1"}, "[24]": {"biological_target": "Neu5Ac(a2-6)Gal(b1-4)GlcNAc(b1-6)[Gal(b1-3)]GalNAc", "in_short": "as §1"}, "[25]": {"biological_target": "Neu5Ac(a2-6)Gal(b1-4)GlcNAc6S", "in_short": "as §1"}, "Neu5Ac(a2-6)GalNAc": {"biological_target": "Neu5Ac(a2-6)GalNAc", "in_short": "as §1"}, "[26]": {"biological_target": "Neu5Ac(a2-6)GalNAc(b1-4)GlcNAc", "in_short": "as §1"}, "[27]": {"biological_target": "Neu5Ac(a2-6)GalNAc(b1-4)GlcNAc6S", "in_short": "as §1"}, "[28]": {"biological_target": "Neu5Ac(a2-6)GlcNAc(b1-4)GlcNAc", "in_short": "as §1"}, "[29]": {"biological_target": "Neu5Ac(a2-6)GlcNAc(b1-4)GlcNAc(b1-4)GlcNAc", "in_short": "as §1"}},
  "note": "The other results are listed elsewhere or left out.",
  "data": [
    {"binder": "B1", "values": [
      {"measurement": "glycan array binding signal (z-score)", "setting": "[1]", "result": 0.438},
      {"measurement": "glycan array binding signal (z-score)", "setting": "[2]", "result": -0.312},
      {"measurement": "glycan array binding signal (z-score)", "setting": "[3]", "result": -0.225},
      {"measurement": "glycan array binding signal (z-score)", "setting": "[4]", "result": -0.057},
      {"measurement": "glycan array binding signal (z-score)", "setting": "[5]", "result": -0.501},
      {"measurement": "glycan array binding signal (z-score)", "setting": "[6]", "result": -0.278},
      {"measurement": "glycan array binding signal (z-score)", "setting": "[7]", "result": 0.183},
      {"measurement": "glycan array binding signal (z-score)", "setting": "[8]", "result": -0.253},
      {"measurement": "glycan array binding signal (z-score)", "setting": "[9]", "result": -0.236},
      {"measurement": "glycan array binding signal (z-score)", "setting": "[10]", "result": 0.409},
      {"measurement": "glycan array binding signal (z-score)", "setting": "[11]", "result": -0.368},
      {"measurement": "glycan array binding signal (z-score)", "setting": "[12]", "result": -0.548},
      {"measurement": "glycan array binding signal (z-score)", "setting": "[13]", "result": -0.243},
      {"measurement": "glycan array binding signal (z-score)", "setting": "[14]", "result": -0.328},
      {"measurement": "glycan array binding signal (z-score)", "setting": "[15]", "result": 1.26},
      {"measurement": "glycan array binding signal (z-score)", "setting": "[16]", "result": -0.168},
      {"measurement": "glycan array binding signal (z-score)", "setting": "[17]", "result": 0.439},
      {"measurement": "glycan array binding signal (z-score)", "setting": "[18]", "result": -0.121},
      {"measurement": "glycan array binding signal (z-score)", "setting": "[19]", "result": -0.455},
      {"measurement": "glycan array binding signal (z-score)", "setting": "[20]", "result": 0.577},
      {"measurement": "glycan array binding signal (z-score)", "setting": "[21]", "result": -0.054},
      {"measurement": "glycan array binding signal (z-score)", "setting": "[22]", "result": 0.449},
      {"measurement": "glycan array binding signal (z-score)", "setting": "[23]", "result": 0.145},
      {"measurement": "glycan array binding signal (z-score)", "setting": "[24]", "result": -0.462},
      {"measurement": "glycan array binding signal (z-score)", "setting": "[25]", "result": 0.219},
      {"measurement": "glycan array binding signal (z-score)", "setting": "Neu5Ac(a2-6)GalNAc", "result": -0.487},
      {"measurement": "glycan array binding signal (z-score)", "setting": "[26]", "result": -0.63},
      {"measurement": "glycan array binding signal (z-score)", "setting": "[27]", "result": 0.207},
      {"measurement": "glycan array binding signal (z-score)", "setting": "[28]", "result": -0.484},
      {"measurement": "glycan array binding signal (z-score)", "setting": "[29]", "result": -0.552}
    ]}
  ]
}
